From PubChem BioAssay AID463173 (ICCB-Longwood Screening Facility, Harvard Medical School, 2010)
About 4,300 (8.3%) of roughly 52,000 compounds were called active. Rule as the data show it: active = survival mostly below about 52% (no sharp cut-off); inactive = mostly above about 56%. The list shows a part of the results.

Tested on: DeltatarO mutant
Test: growth inhibition of S. aureus wild type versus tarO mutant, primary screen, teichoic acid synthesis inhibitors, RN4220, OD600 (AID 463173)
Conditions: OD600, 18 h, hits give low values, screened at 18.75 µg/mL (by protocol)

SMILES | survival
CC(=O)N1c2ccc(S(=O)(=O)NCCc3cccc(C)c3)cc2CC1C (stereo not given) | inactive: 84%
Cc1ccc(C(=O)N/C(=C/c2ccco2)C(=O)Nc2nccs2)cc1 | inactive: 80%
CCn1c(=O)c(=O)n(CC)c2cc(N3CCCCC3)c(NC(=O)c3cccc(OC)c3)cc21 | inactive: 85%
CCOC(=O)c1cccc(NC(=O)N2Cc3ccccc3Oc3ncccc32)c1 | inactive: 66%
COc1ccc(C2CC(=O)C(C=NC3CCCC3)=C(O)C2)cc1 (stereo not given) | inactive: 73%
CCOc1cccc(NC(=O)CSc2ncc(-c3ccc(Cl)cc3)[nH]2)c1 | active: 39%
COc1ccc(-n2c(=O)c3c4c(sc3n(Cc3ccccc3)c2=O)CCC4)c(OC)c1 | inactive: 50%
COc1ccc(-c2cc(C(F)(F)F)nc(NCc3ccccc3)n2)cc1OC | active: 42%
COc1cccc(CN2c3ccccc3-c3nc(SCC(=O)Nc4cccc(C)c4)ncc3S2(=O)=O)c1 | inactive: 50%
CCOC(=O)C1CCN(C(=O)Cc2cccc3ccccc23)CC1 | inactive: 82%
O=C1C(=O)N(C2CCN(C(=O)c3ccc(F)cc3)CC2)CCN1Cc1ccc(F)cc1 | inactive: 74%
CCc1nnc2c3ccccc3nc(Nc3ccc(F)cc3C)n12 | active: 39%
Cc1cccc(OC(C)C(=O)N2CCC(c3nc4ccccc4o3)CC2)c1C (stereo not given) | inactive: 75%
CCc1ccc2oc(-c3cccc(NC(=O)c4ccc(-c5cccc([N+](=O)[O-])c5)o4)c3)nc2c1 | inactive: 58%
CCOc1ccc(Br)cc1C1C(C(=O)Nc2ccccc2OC)=C(C)Nc2nnnn21 (stereo not given) | inactive: 66%
Cc1cc(C)cc(OCCOCCn2c(-c3ccc(Cl)cc3)nc3ccccc3c2=O)c1 | active: 43%
CN1CCC(OC(=O)Cc2ccc(Cl)cc2)CC1 | inactive: 103%
CCOc1ccc(-n2c(-c3ccc(OC)cc3)cc3c2CC(C)(C)CC3=O)cc1 | active: 15%
C=Cc1ccc(CSc2nc(-c3ccc(Cl)cc3)nc3c2Cc2c(CO)cnc(C)c2O3)cc1 | inactive: 70%
CCCCN(CCCC)S(=O)(=O)c1ccc(NC(=O)c2c(-c3ccccc3)noc2C)cc1 | inactive: 60%
Cc1ccc(NC(=O)CC2Sc3ccccc3NC2=O)c(C)c1 (stereo not given) | inactive: 137%
CCN(C(=O)c1cc(S(=O)(=O)N2CCCCC2)c[nH]1)c1ccc(OC)cc1 | inactive: 77%
COc1ccc(-c2nc(SCC(=O)NC3CCCC3)c(-c3ccccc3)[nH]2)cc1OC | inactive: 65%

SMILES | survival
O=C(N1CCCCC1)N1c2ccccc2C=Cc2ccccc21 | inactive: 99%
CCOC(=O)C1CCN(C(=O)c2ccc3c(c2)sc2nc(-c4ccc(OCC)cc4)cn23)CC1 | inactive: 69%
Cc1ccc(NC(=O)Cn2ccn(Cc3ccc(Cl)cc3)c(=O)c2=O)cc1C | inactive: 111%
CC(=O)c1cccc(-n2c(CCC(=O)O)ccc2-c2ccccc2)c1 | inactive: 74%
COc1ccc(OC)c(Nc2cc(C(=O)NCc3ccccc3)c3ccccc3n2)c1 | inactive: 104%
CCC(=O)Nc1nc(-c2ccc3c(c2)CCN3C(C)=O)cs1 | inactive: 95%
Cc1ccc(-n2ncc3c(Nc4ccc5c(c4)OCCO5)ncnc32)cc1C | inactive: 85%
CCOc1ccccc1C(=O)N1CCc2cc(OC)c(OC)cc2C1COc1ccc2c(C)cc(=O)oc2c1 (stereo not given) | inactive: 66%
Cn1c(NCc2ccccc2F)nc2ccccc21 | inactive: 93%
COc1cc(Cl)c(C)cc1NC(=O)CSCc1nc(-c2ccc(OC)c(OC)c2)no1 | inactive: 102%
Cc1ccc(C)c(Cn2cc(CCC(=O)NC3CCCCC3)c3ccccc32)c1 | inactive: 86%
N=c1n(CCO)c2ccccc2n1CCOc1ccc(F)cc1 | active: 40%
CC(C)c1nnc(SCC(=O)NC(C)(C)C)n1C | inactive: 89%
COc1ccc(-c2cc(C(=O)Oc3ccc(Cl)cc3)c3ccccc3n2)cc1 | active: 49%
Cc1cc(C)cc(N(CC(=O)Nc2ccc(C(F)(F)F)cc2)S(=O)(=O)c2c(C)[nH]c(=O)[nH]c2=O)c1 | inactive: 48%
CCOc1ccc(NC(=O)NC(CC)Cn2nnc3ccccc3c2=O)cc1 (stereo not given) | inactive: 107%
Cc1ccc(OCCSc2nc3ccccc3n2CCC(=O)O)cc1C | active: 47%
CCN1CCN(C(c2ccc(Cl)cc2)c2c(O)cc(C)n(CCOC)c2=O)CC1 (stereo not given) | inactive: 75%
Cc1nc2ncnn2c(C)c1CCC(=O)NCc1ccc(Cl)cc1 | inactive: 92%
O=C(CSc1ncc(S(=O)(=O)c2ccc(Br)cc2)c(=O)[nH]1)NCc1ccccc1Cl | inactive: 60%
Cc1ccccc1NC(=O)c1ccc(NC(=O)N2CCSc3ncccc32)cc1 | active: -2%
COc1ccc(OC)c(-n2c(=O)[nH]c3cc(C(=O)NCCc4ccc(OC)c(OC)c4)ccc3c2=O)c1 | inactive: 76%
COc1cccc(NC(=O)c2sc(-n3nc(C)c(Cc4ccccc4Cl)c3C)nc2C)c1 | inactive: 94%

SMILES | survival
CC1CCN(S(=O)(=O)c2ccc3c(c2)N(CC(=O)NCc2ccccc2Cl)C(=O)CO3)CC1 | inactive: 116%
COc1ccc(NCc2nc3ccccc3n2CCOc2ccccc2C)cc1 | active: 32%
Cc1cc(N2CCCC2)nc(SCC(=O)c2ccccc2)n1 | inactive: 77%
COc1cccc(CNC(=O)C2CCC(CNS(=O)(=O)c3cccs3)CC2)c1 (stereo not given) | inactive: 74%
O=c1c(S(=O)(=O)c2ccccc2)cn(Cc2ccc(F)cc2)c2cc(N3CCCC3)c(F)cc12 | inactive: 74%
Cc1ccc(OCc2cc(=O)n3c4c(sc3n2)CCCC4)c(C)c1 | inactive: 88%
CC(=O)NC1C(OC2=CC3OC(=O)CC(C)=C3C=C2)OC(CO)C(O)C1O (stereo not given) | inactive: 77%
CCCC(=O)N(c1ccc2oc3c(c2c1)CCCC3)S(=O)(=O)c1ccc(CC)cc1 | active: 39%
O=C(NCCS(=O)(=O)N1CCN(c2ccccc2F)CC1)c1cc(=O)c2ccccc2o1 | inactive: 71%
O=C(Nc1ccc(F)cc1)c1ccc(-n2cnc3cccnc32)cc1 | inactive: 90%
O=C(NCCc1ccc(Cl)cc1)c1ccc(CS(=O)(=O)Cc2ccc(F)cc2)o1 | inactive: 92%
COC(=O)c1c(SC)nc2ccccc2c1OCc1cccc(C)c1 | inactive: 93%
S=c1[nH]nc(CCn2c3ccccc3c3ccccc32)n1-c1ccccc1 | inactive: 69%
Cc1ccc(N(C)C(=O)Cn2nc(Cc3ccncc3)c3ccccc3c2=O)cc1C | inactive: 84%
Cc1ccc(CNS(=O)(=O)c2ccc(F)c(C(=O)Nc3ccc(C)c(F)c3)c2)cc1 | active: 46%
COc1ccccc1CCNC(=O)c1cc2c(=O)n3cccc(C)c3nc2n1C | inactive: 65%
CNC(=O)C1CCC(Cn2c(=O)c3sccc3n(Cc3ccccc3)c2=O)CC1 (stereo not given) | inactive: 86%
Cc1csc2nc(COC(=O)c3ccccc3NC(=O)c3ccccc3Cl)cc(=O)n12 | inactive: 68%
CCc1ccc(NC(=O)N2CC=C(c3c[nH]c4ccccc34)CC2)cc1 | active: 39%
CCOc1ccc(-c2nc(Cn3c(=O)cc(-c4ccccc4)c4c(C)nn(C)c43)c(C)o2)cc1OC | inactive: 126%
COc1cc(OC)c(NC(=O)C(C)n2c(=O)cc(-c3ccccc3)c3c(C)nn(C)c32)cc1Cl (stereo not given) | inactive: 83%
FC(F)(F)Oc1ccc(-n2[nH]nnc2=S)cc1 | inactive: 83%
Cc1ccc(CNC(=O)C2CCN(c3nn4cc(-c5ccc(F)cc5)nc4s3)CC2)cc1 | inactive: 87%

SMILES | survival
CCN(CC)c1ccc(NC(=O)CCS(=O)(=O)c2cccc3nsnc23)c(C)c1 | active: 44%
CCC(CC)C(=O)Nc1cccc(-c2nc3cccnc3s2)c1 | inactive: 80%
COc1cccc(COC(=O)c2nn(-c3ccccc3)nc2N)c1 | active: 15%
Cc1cccc(S(=O)(=O)c2cn(Cc3ccccc3)c3cc(N4CCC(C)CC4)c(F)cc3c2=O)c1 | inactive: 91%
CCn1c(Oc2ccc(F)cc2F)nc2c1c(=O)n(C)c(=O)n2C | inactive: 72%
CCc1cc2c(cc3c(=O)n(CC(=O)NCc4cccc(Cl)c4)nc(CC)n32)s1 | inactive: 91%
CCC1=Nc2cc(C(=O)NCCc3ccccc3)ccc2Sc2ccc(Cl)cc21 | inactive: 74%
COc1ccc(Nc2cc(C(=O)NCCCN(C)Cc3ccccc3)c3ccccc3n2)cc1OC | inactive: 108%
COc1cccc(CNC(=O)C(=O)NCC(c2cccs2)S(=O)(=O)c2cccs2)c1 (stereo not given) | inactive: 94%
COc1ccc(-n2nc3cc(C)c(NC(=O)COc4cccc(C)c4)cc3n2)cc1 | inactive: 56%
Cc1cc(S(=O)(=O)Nc2cc3c(cc2C)n(C)c(=O)c(=O)n3C)ccc1F | inactive: 84%
CCSC1=NC2(CCN(C(=O)NC3CCCCC3)CC2)N=C1c1ccc(C)cc1 | inactive: 68%
Cc1ccccc1NC(=O)CSc1ncc2c(n1)-c1ccccc1N(C)S2(=O)=O | inactive: 102%
C1CCC2(C1)OCC1(CO2)COC2(CCCC2)OC1 | inactive: 94%
CCOc1ccccc1NC(=O)c1c(NC(=O)C(C)Oc2cccc(Cl)c2)sc2c1CCCCC2 (stereo not given) | inactive: 64%
Cc1cc(C)c2c(n1)nn1c(C)c(CCC(=O)Nc3ccc(C)c(Cl)c3)c(C)nc21 | inactive: 84%
CN=c1sc2ccccc2n1CC(O)c1ccccc1 (stereo not given) | inactive: 103%
Cc1cn2c(=O)cc(COC(=O)c3cccc(NC(=O)C(C)Oc4ccccc4)c3)nc2s1 (stereo not given) | inactive: 95%
CCCCSCCCNC(=O)c1cn(CC)c2ccc(S(=O)(=O)N3CCOCC3)cc2c1=O | inactive: 61%
CC1=CC(c2ccccc2)NC(=S)N1 (stereo not given) | inactive: 78%
CCOc1ccc(NC(=O)CSc2nnc3c(C)cc4ccccc4n23)cc1 | inactive: 137%
